# In the supplement of paper PMC12217912:
# This is one part of the list. The full chains were built here from the parent and the listed change. Inactive controls read about 0.05.
# B1: TEV protease; numbered along this chain (parent)
# chain: MGESLFKGPRDYNPISSSICHLTNESDGHTTSLYGIGFGPFIITNKHLFRRNNGTLVVQSLHGVFKVKDTTTLQQHLVDGRDMIIIRMPKDFPPFPQKLKFREPQREERICLVTTNFQTKSMSSMVSDTSCTFPSGDGIFWKHWIQTKDGQCGSPLVSTRDGFIVGIHSASNFTNTNNYFTSVPKNFMELLTNQEAQQWVSGWRLNADSVLWGGHKVFMVKPEEPFQPVKEATQL
# Variants of: B1
# Assay: raw area under fraction-flipped curve 0-4 h after induction (AUC4h, not background-subtracted), DNA-recorder readout of cleavage of the substrate (dimensionless); higher = more cleavage of the substrate by the protease variant
# Settings: temperature: 34 °C; time window: 0-4 h after rhamnose induction
# Description: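 In vivo DNA recorder in E. coli TOP10(DE3) ΔrhaA at 34 °C. Each TEVp single-site mutant (parent TEVp 0) is paired with a single-site variant of the 7-mer TEVs (canonical ENLYFQ|S). The substrate sits between flexible linkers in a Bxb1-sfGFP-TEVs-SsrA fusion, so cleavage stabilises Bxb1 and speeds flipping of a recombination array, read by NGS. The value is the raw area under the fraction-flipped curve over 0-4 h after rhamnose induction (AUC4h), with ≥20 reads per time point. It is not background-subtracted; inactive controls average about 0.047.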
# 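Note: Bxb1 expression induced with 0.2% (w/v) L-rhamnose at OD600 near 0.5, cultures sampled hourly, flipped fraction per protease–substrate barcode pair counted by paired-end Illumina sequencing.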
Variant,area with substrate ENLYDQS,area with substrate ENLYKQS,area with substrate ENLYMQS,area with substrate ENLYVQS,area with substrate ENLYWQS,area with substrate ENLYHQS,area with substrate ENLYNQS,area with substrate ENLYGQS,area with substrate ENLYRQS,area with substrate ENLYSQS
L190F,0.0629,0.0406,0.0816,0.0901,0.0985,–,–,–,–,–
N193Q,0.0513,0.0521,–,–,–,0.0659,0.0631,–,–,–
E195L,0.0695,–,–,0.0616,0.0579,0.0683,0.0767,0.0473,0.0729,0.0816
E195S,0.0543,–,0.0835,0.133,0.0933,0.0548,0.0747,0.058,–,–
Q197I,0.0676,0.0525,0.0494,0.131,–,0.0681,–,0.0737,0.0612,–
Q198G,0.0608,–,–,0.107,0.0676,0.0881,0.0681,–,0.0576,0.0643
Q198P,0.0581,–,0.072,0.0966,0.0743,–,–,–,0.0586,–
W199Q,0.0793,0.0757,–,–,–,–,0.068,–,–,–
V200D,0.0391,–,0.0824,–,0.056,0.0589,–,–,0.062,–
S201H,0.0648,–,0.0717,–,–,0.0544,–,0.0709,–,0.0842
S201N,0.0664,0.0656,0.0772,–,0.0844,0.0484,0.0924,0.0635,0.0543,–
G202W,0.0545,–,–,–,0.0339,0.0561,0.0661,0.0676,–,0.0601
W203D,0.0586,–,–,–,–,–,–,–,–,0.064
N206P,0.0786,–,–,–,–,–,0.0639,–,0.047,0.0843
A207R,0.0432,–,0.0844,–,0.0986,–,0.0621,0.0559,0.0685,–
S209A,0.0625,–,0.0682,–,–,0.0831,0.084,–,0.059,–
S209E,0.0651,0.11,0.0982,0.141,0.0888,–,–,0.0633,0.0576,–
S209W,0.0648,–,0.0819,–,–,–,0.0762,–,–,–
V210P,0.0591,0.0673,0.0544,–,–,0.0543,–,0.0599,0.0576,0.0659
W212S,0.0776,–,–,–,–,0.0614,0.0546,0.0633,0.0576,–

# Same assay, conditions: temperature: 34 °C; time window: 0-4 h after rhamnose induction
Variant,area with substrate ENLYTQS,area with substrate ENLYYQS,area with substrate ENLYPQS,area with substrate ENLYQQS,area with substrate ENLYEQS,area with substrate ENLYIQS,area with substrate ENLYLQS
E195L,0.0742,0.0556,–,–,–,–,–
E195S,–,0.0752,0.0418,0.0564,–,–,–
Q197I,–,–,0.0866,0.054,0.0593,–,–
Q198G,0.0701,–,–,–,0.0678,0.0854,–
Q198P,–,–,–,–,–,0.174,–
W199Q,–,–,0.056,–,0.0446,0.0737,–
V200D,0.0763,0.0635,–,–,0.0792,–,–
S201H,–,–,–,–,0.115,0.0697,0.0921
S201N,–,–,0.0438,0.064,0.0612,0.108,–
G202W,–,0.0599,0.0629,–,0.0408,0.0545,–
W203D,–,–,–,–,–,0.0626,–
N206P,0.0685,–,0.0804,–,0.0576,–,–
A207R,0.069,0.0616,–,0.0665,0.0672,–,–
S209A,–,–,0.0684,0.0744,0.0723,–,–
S209E,–,0.0589,–,–,0.0858,–,–
S209W,–,–,0.0939,–,0.0597,–,–
V210P,0.0784,–,0.073,0.0046,0.053,0.0832,0.0598
W212S,–,–,0.0676,0.0654,0.0694,–,–
